Source: the BET-seq Pho4 binding data (Le et al. 2018)
The other results are listed elsewhere or left out. The energies were worked out here from pooled read counts, against the library average; single values are noisy.

What follows are sequences tested against T1, Pho4 (S. cerevisiae) (UniProt P07270) (assay: relative binding free energy (BET-seq); higher = weaker binding). Conditions: reference: library average.
T1 sequence: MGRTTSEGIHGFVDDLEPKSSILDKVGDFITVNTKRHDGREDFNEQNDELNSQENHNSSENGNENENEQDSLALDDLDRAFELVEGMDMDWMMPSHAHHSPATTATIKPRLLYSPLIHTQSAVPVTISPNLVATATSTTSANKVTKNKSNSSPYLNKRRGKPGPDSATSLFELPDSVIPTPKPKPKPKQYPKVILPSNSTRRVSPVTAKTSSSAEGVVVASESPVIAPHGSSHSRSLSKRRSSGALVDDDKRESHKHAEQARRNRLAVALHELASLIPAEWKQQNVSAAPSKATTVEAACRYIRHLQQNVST

Sequence | relative binding free energy [kcal/mol]
TGTTCCACGTGTTAGA | -0.01
CTTTTCACGTGTGAGA | 0.3
AGAGTCACGTGGTAGT | 0.07
AAGGGCACGTGTCGCT | -0.05
TGCGACACGTGTGCGG | 0.11
AGGTGCACGTGGATTT | 0.03
AAATACACGTGGTGTT | 0
TGTGTCACGTGCGAAT | 0.11
AGTATCACGTGTAGAA | 0.35
GGGGGCACGTGATTCA | 0.04
CGCGTCACGTGGAGGT | 0.07
ATATACACGTGGTGTC | -0.1
GTGGGCACGTGGGACA | -0.09
TGGCGCACGTGGCTGA | -0.1
TGTATCACGTGTAAAA | 0.17
ATGTGCACGTGATGAA | 0.12
TAGGTCACGTGGTCAA | 0.01
GTTTGCACGTGTATTG | 0.06
GTCACCACGTGTTGGT | -0.04
TAAGGCACGTGTTCTA | -0.02
TTTGGCACGTGTAACA | 0.05
TGCGTCACGTGGGTTT | 0.05
TGTAACACGTGGCGGG | -0.07
CGTTACACGTGGGTTA | -0.09
AGTGTCACGTGGAGTC | 0.06

Sequence | relative binding free energy [kcal/mol]
CAAAGCACGTGAGGGT | 0.17
TGGTTCACGTGCGAAG | 0.08
ACAGGCACGTGGGGAG | -0.3
TAAGGCACGTGTATGG | -0.11
AATGTCACGTGTTAAA | 0.09
GTAGACACGTGGTTGA | -0.02
ATCGTCACGTGGTTTA | 0.05
GTGGGCACGTGTCGCT | -0.02
GTCATCACGTGTAGGT | 0.22
TTGCACACGTGGTCGT | -0.04
TTCTGCACGTGGGACT | 0.02
TTTACCACGTGTTTGG | 0
TGGGCCACGTGTATGT | 0
ACCTTCACGTGGTTGT | 0.32
AGTGGCACGTGAATGA | 0.1
TTTTGCACGTGCTGTT | -0.09
AGGTGCACGTGTAGGT | -0.06
ACTTGCACGTGGTGTG | -0.13
TGGATCACGTGTAGCG | 0.18
TGCAACACGTGTTATT | 0.05
GTTGGCACGTGATTAG | 0.03
AAATGCACGTGGACTT | 0.2
GCATGCACGTGGGTGG | -0.05
TTAGGCACGTGTGATG | -0.06
TGATGCACGTGTAGGA | -0.06

Sequence | relative binding free energy [kcal/mol]
GTGGCCACGTGTGGAG | 0.01
AGCGTCACGTGATGAT | 0.29
GGGTTCACGTGTTGGT | 0.34
ATTAACACGTGTGTAT | 0.07
GTGATCACGTGTAGAG | 0.12
GTGTTCACGTGGTGAT | 0.17
TATTGCACGTGATTAA | -0.06
TTGCGCACGTGTTAGT | -0.01
GACATCACGTGTAGGT | 0.19
TTAGGCACGTGGAAGT | -0.04
GGAGTCACGTGGTGTT | 0.19
TGGGACACGTGTACGG | 0.11
GATTTCACGTGATGGT | 0.41
GATTGCACGTGTGGTC | 0.14
ATAGGCACGTGGGGTG | -0.32
CGCTTCACGTGGGGTA | 0.08
AGTAACACGTGTGATT | 0.05
ATGACCACGTGGAGTG | -0.03
TGCAGCACGTGTTTTT | -0.12
GGGATCACGTGGAGTT | 0.19
GTAAGCACGTGGGTCA | -0.15
GACTTCACGTGGGGTC | 0.36
GGCTTCACGTGAGGGC | 0.4
TGTCTCACGTGTTGGG | 0.19
TAAGGCACGTGGATTG | -0.01

Sequence | relative binding free energy [kcal/mol]
GTCGTCACGTGTATGT | -0.01
AAAGGCACGTGGAGGA | -0.08
GGTGGCACGTGTATTT | 0.03
GGTTGCACGTGTTTCA | -0.01
CAGAGCACGTGGTGAA | 0.16
GTTATCACGTGGTTAA | 0.21
GTAGACACGTGTATAG | 0.05
GAGTTCACGTGGGGTG | 0.19
TTTTGCACGTGAGGAG | 0.3
ATGTTCACGTGCGAGG | 0.16
TTACGCACGTGAAGGT | 0.34
CATTTCACGTGATTGG | 0.36
GGTTACACGTGGGGCA | -0.03
CGGAGCACGTGGGGTA | -0.27
CAGTGCACGTGTTTGA | -0.03
GTTTGCACGTGTCTTG | 0.04
ATAGGCACGTGCTTGT | -0.16
ATTGGCACGTGGTGCC | -0.24
AGGGACACGTGGACTG | 0.11
AATGGCACGTGCGTGT | -0.37
GGCCGCACGTGTTGTG | -0.12
AGGTGCACGTGGTAAC | 0.09
GCTAGCACGTGGGATT | -0.01
CGGGGCACGTGTGTTC | 0.05
AGAAACACGTGTAGGT | 0.08

Sequence | relative binding free energy [kcal/mol]
TTTTGCACGTGCGTGG | -0.13
TGTGTCACGTGGAGAA | 0.17
GTAAGCACGTGGGGAG | -0.03
TAGGGCACGTGGCGAT | -0.15
TTAGACACGTGGCTGT | 0.02
TGTAACACGTGGGGGT | -0.07
TTTTACACGTGAACTT | 0.18
GGTGACACGTGAATGG | 0.23
AATATCACGTGAGGGT | 0.24
TTTGCCACGTGCGGGG | -0.2
AGGGCCACGTGCGTTG | -0.21
TTGGACACGTGTTACG | 0.04
AGTGTCACGTGCGTGA | -0.06
GATGTCACGTGGTCAT | 0.12
ACATGCACGTGGAGTG | -0.06
AAGTACACGTGGGCTG | -0.02
GAGTTCACGTGGTAGG | 0.27
AGGGTCACGTGATATT | 0.21
AGAGTCACGTGGGCGG | 0
GTCGTCACGTGTATTG | 0.13
ATATTCACGTGGGCGC | 0.18
GGGTGCACGTGGTTTT | 0.01
GATGTCACGTGGGCGT | 0
GTAAGCACGTGGTGGT | -0.15
AGGGCCACGTGGATTG | -0.16

Sequence | relative binding free energy [kcal/mol]
TTGTTCACGTGCAGAG | 0.28
CGTGCCACGTGGTGGT | -0.15
TGCAACACGTGGAGGT | -0.08
GGAAACACGTGGGTGG | -0.18
AGGTTCACGTGGGTTG | 0.19
ATCGGCACGTGTGGTA | 0.03
GTTTCCACGTGGTCTG | 0.1
GTAGTCACGTGAGAGT | 0.33
GTCAGCACGTGCGTGT | -0.02
TTTTGCACGTGCGGTT | 0.01
TAGGACACGTGTTTAA | -0.01
TAGTTCACGTGGTGCG | 0.21
TTAAACACGTGTTGAT | 0
GTTTGCACGTGAAGTC | 0.36
GCCTGCACGTGTGTGT | 0.02
GGGATCACGTGGAGCT | 0.15
AGTCTCACGTGTAGGG | 0.03
TATGGCACGTGCGGCA | -0.14
TACGTCACGTGAGCGT | 0.14
AAGGTCACGTGGTTCA | 0.03
AAGGTCACGTGAAGTT | 0.3
